From article PMC12040169 (PLOS Biology, 2025)
This is one part of the list.

Each compound was assayed on T1, C. trachomatis L2/434/Bu expressing GFP (CTL2-GFP). Settings: total inclusion area; 28.5 h, 10 µM; inhibitor.
T1 construct: L2/434/Bu GFP intracellular growth in HeLa cells
Parameters: species or system HeLa; C. trachomatis total inclusion area by high-content imaging, normalised to DMSO
Summary of the method: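 After bulk GFP and resorufin fluorescence reads, cells were fixed, stained with Hoechst and imaged by high-content microscopy. Inclusion area and number (GFP) stood in for chlamydial growth, nuclei count (Hoechst) for host cell viability. MICs were derived as for the bulk readout.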

SMILES	% of control remaining
COC(=O)c1ccccc1NC(=O)CSc1n[nH]c(-c2ccccc2Cl)n1 [CBK265966]	74.6518
Clc1ccc(CN2CCN(c3nccnc3OC3CCCCC3)CC2)cc1 [CBK082826T]	57.4988
Cc1ccc(S(=O)(=O)N2CCN(C)CC2)cc1NC(=O)c1ccc(Br)o1 [CBK034260C]	85.9301
COc1ccc(-c2cc(C(=O)NCCc3c[nH]cn3)cnc2-c2ccc(F)cc2)cn1 [CBK036675]	80.9202
O=C(NCCc1cccs1)Nc1cc(Cl)nc(Cl)c1 [CBK043762]	87.8437
COc1ccc(NC(=O)c2cnc(-c3cccc(C(F)(F)F)c3)c(-c3ccncc3)c2)cc1 [CBK037593]	92.3935
CC(Sc1ccc(S(=O)(=O)N2CCN(C)CC2)cn1)C(=O)Nc1ccc(C(C)(C)C)cc1 (stereo not shown) [CBK297551]	59.1237
Cc1cccnc1Nc1ccc(C2CCCN(C(=O)Cc3ccc4c(c3)CCCO4)C2)nc1 (stereo not shown) [CBK285969]	96.9777
O=C1NC2=C(C(=O)N(CC3CCCO3)C2)C(c2ccccc2)N1 (stereo not shown) [CBK283494]	75.3
CNC(=O)CN1CCC[C@@H]2NC(=O)c3ccccc3OCCCCC[C@@H]21 [CBK292104]	89.7888
Cn1nc(NC(=O)CN2CCOC2=O)c2c(N3CCOCC3)cccc21 [CBK306830]	47.2028
O=C(CCCc1nc2ccccc2c(=O)[nH]1)NC(Cc1ccc(O)cc1)C(=O)O (stereo not shown) [CBK297130]	92.4295
OCC1(CNc2ncc(F)c(N3CCCC3)n2)CCCC1 [CBK307397]	29.6896
COc1ccc(CN(Cc2ccc(NC(C)=O)cc2)[C@@H]2COC[C@H]2c2ccc(F)cc2)cc1 [CBK286488]	81.9608
Nc1cc(=O)[nH]c(SCC(=O)N2CCCc3ccccc32)n1 [CBK304576]	80.5225
CC(Oc1ccccc1)C(=O)Nc1cccc(-c2nnc(-c3ccccc3)o2)c1 (stereo not shown) [CBK262822]	103.993
O=C(NC1CCN(CC2(c3ccccc3)CC2)CC1)C1CCC1 [CBK285322]	91.6519
Cc1nccn1CCCC(=O)NCC1(c2ccccc2F)CCCC1 [CBK281370]	68.9272
CC(C)C(=O)Nc1cc2cccnc2c(-c2ccccc2)n1 [CBK081287]	98.683
c1ccc(-c2ccno2)c(OCc2ccc(-c3nccnc3-c3nnn[nH]3)cc2)c1 [CBK050817]	88.4649
CN(C(=O)CSc1ncccc1C#N)c1ccccc1 [CBK288044]	117.041
O=C(C1=C(O)C(=O)N(c2ccc([N+](=O)[O-])cc2)C1c1ccccc1)c1ccccc1 (stereo not shown) [CBK263787]	114.486
CC(C)Nc1nccnc1OCc1ccsc1 [CBK115646]	110.595
CCCN(C)Cc1ccc(-c2cn(CC(=O)NCc3ccc4c(c3)OC(F)(F)O4)nn2)cc1 [CBK166361]	52.1737
C[S+]([O-])CC(O)(c1ccc(F)cc1)C1CC1 (stereo not shown) [CBK025846]	116.858
CN(CCN(C)/N=C/c1c2ccccc2cc2ccccc12)/N=C/c1c2ccccc2cc2ccccc12 [CBK262039]	120.109
Cc1ccc(C2CC(=O)Nc3nc(-c4ccccc4)[nH]c(=O)c32)c(C)c1 (stereo not shown) [CBK287998]	78.2262

SMILES	% of control remaining
CCN1CCN(C(=O)Cc2cn(C)c3ccccc23)CC1 [CBK200254]	98.3603
Cc1cc(C)n(CCNC2CCN(c3ccccc3C)CC2)c(=O)n1 [CBK306848]	76.9949
CC(=O)N1CCN(C(=O)c2cnc(-c3ccc(Cl)cc3)c(-c3ccco3)c2)CC1 [CBK037518]	100.203
Cc1ccc(CS(=O)(=O)N(CCO)C2CCC2)c(F)c1 [CBK304101]	54.2264
COC(=O)c1ccc(N2CCN(Cc3nnnn3C3CC3)C(C)C2)cc1 (stereo not shown) [CBK306129]	86.9816
N=C(NC(=S)Nc1ccccc1)N1CCN(Cc2ccccc2)CC1 [CBK267878]	95.9305
NS(=O)(=O)c1ccc(-c2ccc(/C=C3/SC(=S)N(C4CCCCC4)C3=O)o2)cc1 [CBK263127]	89.3181
O=C(NC(S(=O)O)C(F)(F)F)OCc1ccccc1 (stereo not shown) [CBK018979]	138.629
CC(Oc1cccc2cccnc12)C(=O)N/N=C/c1ccc(-c2ccc(Br)cc2)o1 (stereo not shown) [CBK262838]	45.4182
CNC(=O)c1cnc2sc3c(n2c1=O)CCCC3 [CBK288126]	74.7588
CCN(CC)C(=O)C1CCCN(C(=O)Nc2ccc(N(CC)CC)cc2)C1 (stereo not shown) [CBK156139]	65.3308
Fc1ccc(-c2c[nH]c([C@@H]3COCCN3Cc3ncc[nH]3)n2)cc1 [CBK289263]	119.82
COc1ccc(OC)c(N2Cc3ccc(OC)c(OC)c3C2=O)c1 [CBK113161]	123.245
C[C@@H](Nc1nc(-c2ccccc2)cnc1N)c1ccccc1 [CBK063728]	84.0636
CCOCCCNC(=O)c1cnn2c(C)c(CC)c(C)nc12 [CBK162129]	69.4651
COc1cccc(OCC(=O)NCC(c2ccsc2)N2CCCC2)c1 (stereo not shown) [CBK304630]	55.346
c1cnc2c(OCc3nc4ccccc4[nH]3)cccc2c1 [CBK268556]	69.4469
O[C@@]1(c2ccccn2)CC[C@H]2CN(Cc3ccc(F)c(F)c3)C[C@H]21 [CBK285456]	74.7398
CCn1c(CN2CC(n3nc(C)cc3C)C2)nc2c(F)cccc21 [CBK306220]	60.4761
CN(C)CC1CCCN(C(=O)C2C3CCCCC32)C1 (stereo not shown) [CBK282002]	104.331
COc1cc(CN2CCC(N3CCCCCC3)CC2)ccc1OCc1ccccc1 [CBK264709G]	118.658
CC(=O)C1=C(O)C(=O)N(CCC(=O)O)C1c1ccccc1 (stereo not shown) [CBK286763]	76.1756
Cc1nc(N2CCOCC2)cc(N2CCN(C(=O)C3CCCC3)CC2)n1 [CBK307602]	89.661
COc1ccc(C(NC(=O)C2CCN(Cc3c[nH]c4ccccc34)CC2)c2ccccn2)cc1 (stereo not shown) [CBK148033]	90.7896
COc1ccc(C(=O)NC(=N)NCCc2c[nH]c3ccccc23)cc1 [CBK267840]	96.9064
Cc1ccc(CN(C(=O)/C=C/C(=O)O)C(C)(C)C)cc1 [CBK286799]	101.074
CS(=O)(=O)N1CCCCCC1c1cc(-c2ccc(F)cc2)no1 (stereo not shown) [CBK284669]	93.9296

SMILES	% of control remaining
CNCCOCC(O)CSc1ccccc1 (stereo not shown) [CBK262704]	95.9697
Cn1ccnc1C(NC(=O)N1CCOCC1)c1ccc(F)c(F)c1 (stereo not shown) [CBK283781]	66.5109
C#CCNS(=O)(=O)c1cccc(C(=O)N2CCOC(CC(=O)OC)C2)c1 (stereo not shown) [CBK306138]	42.4014
CCN(CC)CCN(C)C1CCN(C)CC1 [CBK261917]	60.1331
CC1CCc2c(C(=O)N(C)CC(=O)NC(C)(C)C)csc2C1 (stereo not shown) [CBK305002]	67.5499
CCOC(=O)c1[nH]c(C)c(C(=O)N/N=C/c2ccc(-c3ccc(Cl)cc3)o2)c1C [CBK262503]	113.685
COc1ccc(NS(=O)(=O)c2ccc(OCC(=O)N3CCN(C)CC3)cc2)cc1Cl [CBK269565]	76.3875
O=C1CN(c2ccccc2)C(=O)N1c1ccccc1 [CBK116496]	104.571
Cc1cc(OC(F)(F)F)ccc1NS(=O)(=O)c1cnn(-c2ccccc2)c1C [CBK062354]	74.5145
COC(=O)c1ccc(S(=O)(=O)n2ccn(-c3cccc(C(F)(F)F)c3)c2=O)n1C [CBK106594]	88.1965
CN1CCN(C(=O)Cn2cc(C(=O)NC3CCCCC3)ccc2=O)C(c2ccccc2)C1 (stereo not shown) [CBK286102]	116.589
C[C@H]1CN2C[C@H](O)CC2CN1Cc1cccn1-c1ccc(F)cc1 (stereo partly shown) [CBK285465]	91.3545
CCC(CC)C(=O)N(C)c1c(C)nc2c(OCC(=O)c3ccc(F)cc3)cccn12 [CBK147239]	87.8155
O[C@@]1(c2ccccn2)CC[C@H]2CN(Cc3ccccc3F)C[C@H]21 [CBK283001]	80.2283
CCc1c(C)nc2nnc(NC(=O)C(F)(F)F)n2c1O [CBK020762]	38.9988
COCCNc1cc(-c2ccc(NC(C)=O)cc2)ncn1 [CBK090799]	82.9701
CNC1CCC2(c3ccc(OC)c(OC)c3)CCN(C)C2C1 (stereo not shown) [CBK059586C]	91.3586
Cc1cc(C)nc(NC(=O)NS(=O)(=O)Nc2ccccc2Cl)n1 [CBK260912]	100.724
CS(=O)(=O)NC1CCCN(c2ccc3ccccc3n2)C1 (stereo not shown) [CBK306457]	61.5172
CCOC(=O)N1CCC(NC(=O)N2CCN(c3ccccc3)CC2)CC1 [CBK155210]	103.006
CCOc1cc(CNCc2ccccn2)cc(Cl)c1OCC [CBK268516C]	93.8314
Nc1nc(SCCCN2C(=O)c3cccc4cccc(c34)C2=O)nc2sc3c(c12)CCCC3 [CBK264433]	121.856
CS(=O)(=O)NC[C@H]1O[C@@H](Cc2nc(-c3ccc(F)cc3)no2)[C@H](O)[C@@H]1O [CBK288906]	111.882
CCc1n[nH]c(C(=O)NCC(c2ccc(F)cc2)N2CCCC2)c1C (stereo not shown) [CBK282630]	121.869
CC(=O)Nc1ccc(-c2ccc(C(=O)NC3CC3)cn2)cc1 [CBK158854]	97.3154
